Results: the GPR68 mutational scans of Howard et al. (2025)

B1: GPR68, Q15743 (parent)
chain: MGNITADNSSMSCTIDHTIHQTLAPVVYVTVLVVGFPANCLSLYFGYLQIKARNELGVYLCNLTVADLFYICSLPFWLQYVLQHDNWSHGDLSCQVCGILLYENIYISVGFLCCISVDRYLAVAHPFRFHQFRTLKAAVGVSVVIWAKELLTSIYFLMHEEVIEDENQHRVCFEHYPIQAWQRAINYYRFLVGFLFPICLLLASYQGILRAVRRSHGTQKSRKDQIQRLVLSTVVIFLACFLPYHVLLLVRSVWEASCDFAKGVFNAYHFSLLLTSFNCVADPVLYCFVSETTHRDLARLRGACLAFLTCSRTGRAREAYPLGAPEASGKSGAQGEEPELLTKLHPAFQTPNSPGSGGFPTGRLA

Legend:
[1] = variants of: B1; assay: cAMP reporter score (Enrich2 score, wild type = 0); higher = more signal; HEK293T, FACS bins
[2] = variants of: B1; assay: surface expression score (Enrich2 score, wild type = 0); higher = more signal; HEK293T, FACS bins

| Variant | cAMP reporter score ([1]; pH 5.5) | cAMP reporter score ([1]; pH 6) | cAMP reporter score ([1]; pH 6, modulator: ogerin) | cAMP reporter score ([1]; pH 6.5, modulator: ogerin) | surface expression score [2] |
| --- | --- | --- | --- | --- | --- |
| D165T | -1.26 | -1.53 | -1.09 | -1.49 | -0.122 |
| D165F | -0.56 | -0.512 | -0.956 | -1.42 | 0.545 |
| D165N | -0.76 | 0.438 | -0.546 | -1.41 | 1.22 |
| D165H | -0.196 | 2.14 | -0.622 |  |  |
| D165K | -0.726 | -0.593 | -1.69 | -1.24 | 1.09 |
| D165P | -1.56 |  |  | -1 | -1.36 |
| D165Y | -0.504 | -0.553 | -0.77 | -0.974 | 0.014 |
| D165R | -0.688 | 0.491 |  | -0.728 | 0.33 |
| D165E | -0.761 | -0.651 | -0.542 | -0.784 | 1.51 |
| D165A | 0.081 | -0.529 | -0.246 | -0.464 | 1.7 |
| D165C | -1.47 |  | 1.69 |  |  |
| C172F | -1.64 | -1.04 | -1.58 | -0.925 | -0.932 |
| C172K | -1.4 | -1.06 | -2.4 | -1.4 | -1.74 |
| C172I | -1.38 | -0.662 | -1.81 | 0 | -0.588 |
| C172A | -1.68 |  |  | -0.974 | -0.911 |
| C172E | -1.04 | -0.586 | -1.54 |  |  |
| C172M | -1.78 | -1.59 | -2 | -1.55 | -1.24 |
| C172D | -2.25 | -1.5 | -2.46 | -1.45 | -1.3 |
| C172L | -1.49 | -1.1 | -1.53 | -1.2 | -1.03 |
| C172H | -1.43 | -1.82 | -1.22 | -1.24 | -1.06 |
| N167_Q168del | -0.618 | -1.52 | -1.55 | -1.08 | 1.05 |
| E166P | 0.869 | 0.281 | 1.15 | 0.516 | 3.62 |

| Variant | cAMP reporter score ([1]; pH 5.5) | cAMP reporter score ([1]; pH 6) | cAMP reporter score ([1]; pH 6, modulator: ogerin) | cAMP reporter score ([1]; pH 6.5, modulator: ogerin) | surface expression score [2] |
| --- | --- | --- | --- | --- | --- |
| E166H | -0.233 | 0.308 | -0.246 | -0.083 | -0.184 |
| E166L | -0.07 | 0.044 | -0.224 | 0.313 | 0.309 |
| E166I | -0.45 | -1 | -0.959 | -0.764 | 0.12 |
| E166K | -0.404 | -0.834 | -0.259 | -1.17 | 0.68 |
| E166Q | 1.19 | 0.489 | 1.13 | 0.456 | 1.65 |
| E166D | -0.312 | 0.216 | 0.217 | 0.227 | -0.464 |
| E166R | 3.93 |  | -0.243 | -0.903 | 0.66 |
| E166A | -0.591 | 0.574 | 0.049 | 1.83 | -0.813 |
| E166M | 0.188 | -0.347 | 0.837 | -0.287 | 1.18 |
| E166W | 0.663 | 0.013 | -0.314 | -0.566 | 1.3 |
| E166Y | 0.421 | -0.34 | 0.2 | -0.08 | 0.504 |
| E166C | 0.148 | -0.212 | 0.296 | -0.523 | 0.162 |
| E166T | 0.264 | 0.894 | 0.227 | 0.373 | 0.904 |
| E166S | 0.45 | -0.223 | -0.007 | -1.28 | -0.111 |
| E166G | 1.36 | 1.59 | 0.791 | 0.82 |  |
| E166F | 0.551 |  | -0.236 | -1.36 | 0.515 |
| E166N | 1.18 | 0.714 | 0.897 | -0.053 | 1.52 |
| V162Y | -1.82 |  | -1.38 | -0.44 | 0.624 |
| E164_D165del | -1.03 | -0.587 | -1.64 | -1.46 | 0.87 |
| N167_H169del | -0.751 | 0.362 | -1.5 | -1.25 | 0.88 |
| Q168_H169del | -1.5 | -1.07 | -1.05 | -1.3 | 0.888 |
| V162_I163insGS | -1.51 | -0.702 | -1.1 | -1.46 | -0.094 |

| Variant | cAMP reporter score ([1]; pH 5.5) | cAMP reporter score ([1]; pH 6) | cAMP reporter score ([1]; pH 6, modulator: ogerin) | cAMP reporter score ([1]; pH 6.5, modulator: ogerin) | surface expression score [2] |
| --- | --- | --- | --- | --- | --- |
| I163Q | -0.031 | 0.402 | -0.06 | 0.233 | -1.09 |
| I163S | 0.343 |  | 1.44 | 2.21 | 0.604 |
| I163R | -0.61 | 0.308 | 0.316 | -0.101 | 0.513 |
| I163V | 1.21 | 1.73 | 1.35 | 2.99 | 0.609 |
| I163F | 0.103 | 2.61 | 0.428 | 0.601 | 2.44 |
| I163L | 0.829 | -0.153 | 0.998 | 0.869 | 0.318 |
| I163P | -1.01 | 0.063 | -0.336 | -0.253 | 0.698 |
| I163Y | -0.112 |  | 0.789 |  | -0.417 |
| I163K | 0.284 | -0.727 | 0.932 | 0.411 | 1.44 |
| I163M | -0.849 | 0.064 | -0.413 | -0.079 | -0.094 |
| I163E | -0.11 | -0.812 | -0.178 | 0.804 | -0.701 |
| I163W | 1 | 3.19 | 1.34 | 3.67 | -0.333 |
| I163D | -0.406 | -0.068 | -1.08 |  | 0.512 |
| I163H | 0.236 |  | 0.5 | 2.22 | -0.115 |
| I163N | -0.23 | -0.039 | -0.133 | -0.473 | 0.132 |
| I163G | -0.648 | -0.935 | -0.383 | -1.58 | -0.073 |
| I163T | 0.448 |  | 1.62 | 3.56 | 0.868 |
| I163C | -0.226 | -0.589 | -0.472 | -0.849 | -0.656 |
| Q168_H169insG | -1.04 | -1.12 |  | -1.64 | 0.32 |
| I163_E164del | -0.979 | -0.907 | -0.701 | -0.984 | 2.07 |

Scores whose standard error is large were omitted. Two further conditions of the source, in which the scores hardly spread, are not listed. Read del as a deletion of the residues named and ins as an insertion between two positions. For part of these data: The data file names ogerin without a concentration.
